In the supplement of paper PMC3724861:
The list shows a part of the results.

What follows are sequences tested on T1, Caupolican (Caup) homeodomain DNA-binding domain (assay: PBM E-score (8-mer, recovered from the published 9-mer minima) (E-score (dimensionless, -0.5 to 0.5)); Drosophila protein; higher = stronger relative binding preference, active = 0.31 or more).
T1 sequence: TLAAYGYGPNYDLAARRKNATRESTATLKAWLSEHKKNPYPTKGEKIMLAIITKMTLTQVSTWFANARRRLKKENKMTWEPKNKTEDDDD
How it was run: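 Caup's homeodomain DNA-binding domain (residues 214-303) was produced by in vitro transcription and translation and applied at 100 nM to custom-designed protein binding microarrays. Each value is an enrichment score giving relative binding preference for a short DNA word; higher means stronger. Published 9-mer scores were the minimum of their two constituent 8-mer scores, and the 8-mer values were recovered from those minima. A cutoff of 0.31 marks candidate binding sequences.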

Sequence | PBM E-score
CCCACGCG | inactive: -0.233
GTGCTTGA | inactive: -0.00605
GCGTATCC | inactive: -0.0184
ACCCATTA | inactive: 0.0233
CGGTACGA | inactive: -0.0387
GGCTTGGA | inactive: -0.0906
CCGATGCG | inactive: -0.173
GGTGACCA | inactive: -0.158
CGACCCTA | inactive: -0.119
CTTAAATA | inactive: -0.0266
AGTCGTAT | inactive: 0.0865
GCCAGTTA | inactive: -0.0296
GGCGGACA | inactive: 0.0078
AATTGCCG | inactive: -0.0697
ACTCCCCG | ≥ -0.125
CCGGACGG | inactive: -0.297
CTCTAGGC | inactive: -0.16
CTGCGTGC | inactive: -0.0735
CCCTGCTC | inactive: -0.156
GGAGACCA | inactive: -0.182
CGGCATGA | inactive: -0.00957
CATATTCA | inactive: 0.172
AGGGTGAA | inactive: -0.0944
CTTTACCC | inactive: -0.00063
CCTGAAAC | inactive: -0.0343

Sequence | PBM E-score
CACTGATC | inactive: 0.00761
CGCCCTTA | inactive: -0.15
AATGATAC | inactive: 0.183
CACTTCAA | inactive: 0.0925
CGAGTACC | inactive: 0.0961
AGGCGCAC | inactive: -0.158
TTCTGAAA | inactive: 0.0593
CATTTGCC | inactive: -0.0757
ATACTGTA | inactive: 0.219
ACAACCGG | inactive: 0.111
GACGTCTA | inactive: -0.0522
AAAGAGGA | inactive: -0.11
GTATATCA | inactive: 0.235
GCCGAGCA | inactive: -0.17
AAATTAGC | inactive: 0.0396
CGGTCAGC | inactive: -0.134
CACCTCCC | inactive: -0.183
AAACAACT | inactive: 0.246
GGAAGGGA | inactive: -0.267
ACGGCCGC | inactive: -0.183
AGAAGGGA | inactive: -0.161
GGAGGTTA | inactive: -0.0798
GTTGGAGA | inactive: -0.0326
CTCTCCCA | inactive: -0.151
GGGTTCAA | inactive: -0.054

Sequence | PBM E-score
ATTTTTCG | inactive: 0.124
CCGGATAA | inactive: -0.0194
GTATATGA | inactive: 0.179
ATTTACTA | inactive: 0.194
ACGGCAGG | inactive: -0.229
TCCTCTCA | inactive: -0.0753
GATGGAAA | inactive: 0.0241
ACCAAGTA | inactive: 0.0922
ACGGGAAT | inactive: -0.0246
CTATTGTC | inactive: 0.0455
GTTGTGAA | inactive: 0.137
AATCGCCT | inactive: -0.0401
ATGGCCAT | ≥ 0.0724
ATACCGTA | inactive: 0.0198
CTTAGATA | inactive: -0.0232
GTCGGGTA | inactive: 0.0154
GGGTCTAA | inactive: -0.0631
CTGGGGTA | inactive: -0.13
GCCCACCC | inactive: -0.104
GTTACTAA | inactive: 0.217
CTGTTCGC | inactive: 0.0582
AAAATCGC | inactive: -0.0248
CGGGGAAC | inactive: -0.0506
CCGTACAG | inactive: 0.0104
GGCCTACA | inactive: -0.0428

Sequence | PBM E-score
CGACCTAC | inactive: -0.0968
ACCCGCGC | inactive: -0.121
GATGGGGC | inactive: -0.192
AACGCTCG | inactive: -0.118
CCAAACTC | inactive: -0.0814
ATCATAGG | inactive: -0.0228
AAACCCAA | ≥ 0.0724
ATGAATTC | inactive: 0.00101
CAATCACA | inactive: 0.196
AACAATCA | inactive: 0.195
ACCGTAGT | inactive: -0.0186
TGTGTAAA | active: 0.318
GCGTTAGC | inactive: -0.0587
ACCCGAAG | inactive: -0.142
CACTTTCC | inactive: -0.0851
CTTAGGAA | inactive: 0.0357
CAAATTAC | inactive: 0.132
GAGACGAC | inactive: -0.011
CCGAAAAA | inactive: 0.037
GTTCAGGA | inactive: 0.00542
AAAAATCA | inactive: 0.11
CCATACAA | inactive: 0.198
GGGTGCGA | inactive: -0.079
TGTTCAAA | inactive: 0.242
AGGTGTCA | inactive: 0.196

Sequence | PBM E-score
AACTTAGG | inactive: 0.00447
GTCTGGCA | inactive: -0.137
ACGATAGG | inactive: -0.0358
AGAGTAAC | inactive: 0.0554
GACGTTAA | inactive: 0.0357
TCAACTAA | inactive: 0.129
ACGGTTCG | inactive: -0.122
CGACTCTC | inactive: -0.0956
GAAAGACC | inactive: -0.123
CCGGCGCC | inactive: -0.253
AAAATAGG | inactive: 0.0632
GAGATGAA | inactive: 0.0213
GCTAGAGA | inactive: -0.0508
AAGCCTCC | inactive: -0.16
GTGACAAC | inactive: 0.303
CTTTCATA | inactive: 0.0707
CAGGATAC | inactive: 0.023
AATCATAT | inactive: 0.152
TAGGGAAA | inactive: 0.0138
CTGTGTAA | inactive: 0.294
AGATGAAC | inactive: 0.133
ATGACCAG | inactive: 0.0581
AAAATGTA | inactive: 0.166
ACGTTCGA | inactive: 0.0289
ATAGAGTG | inactive: 0.0385

Sequence | PBM E-score
CTATATCA | inactive: 0.0895
AAATTCGG | inactive: 0.0188
GGTGGACA | inactive: 0.0406
CTTGATTA | inactive: 0.023
AGATTGGC | inactive: -0.0959
AAGGCCGC | inactive: -0.191
CAGGCACG | inactive: -0.134
CCCGCTCC | inactive: -0.343
AATGTTGC | inactive: 0.207
AAGTTGCG | inactive: 0.0343
GGTTGCGA | inactive: -0.0238
CGGGGTTA | inactive: -0.126
GGTAGCCA | inactive: -0.0887
ACAAGACT | inactive: 0.28
CCCAGGGG | inactive: -0.287
TATCGAGA | inactive: 0.111
AGAGCAGG | inactive: -0.0146
ATTCGCCA | inactive: -0.061
GCCAAGAC | inactive: -0.0789
CTGACCAC | inactive: -0.0657
CTTCGAGC | inactive: -0.169
AAAATCTC | inactive: 0.0777
CGCCGGGC | inactive: -0.289
GGAGGCCC | inactive: -0.306
AAGTCGCT | inactive: -0.0392

Sequence | PBM E-score
GAGCTTAC | inactive: -0.0262
CGTGATGA | inactive: -0.0102
ATGCTAAT | inactive: 0.162
CATTAAAA | inactive: 0.15
GCTAACCA | inactive: 0.00738
GGATTCAC | inactive: -0.0289
ATTGGCTG | inactive: -0.0389
AGGCCTCC | inactive: -0.183
CGGCTCAA | inactive: -0.133
TATTGTAA | inactive: 0.275
TCACCTCA | inactive: -0.0289
AACTCAGT | inactive: 0.0365
GCGGATAA | inactive: -0.0433
GACCAAAA | inactive: 0.029
CCCTGACG | inactive: -0.165
CACGCGGA | inactive: -0.017
GAACCATC | inactive: -0.0355
ATGTACAC | active: 0.441
CCCGGGGC | inactive: -0.344
CATATTCC | inactive: -0.0636
CAGGTACA | inactive: 0.298
GGGCTCCA | inactive: -0.286
ATCTATAA | inactive: 0.0941
AAAGCATA | inactive: 0.105
AATAGCTA | inactive: 0.0749

Sequence | PBM E-score
CCTGTGAA | inactive: -0.0104
GGGGTAGA | inactive: -0.16
GCTCTTAA | inactive: -0.0377
GATAGTCA | inactive: -0.0107
GTATGGAA | inactive: -0.0219
CCGCCAAA | inactive: -0.134
AACTACAC | active: 0.355
CCACCCAG | inactive: -0.0545
CCGACACC | inactive: -0.0618
ATGAAATG | inactive: -0.0333
GCGTCTTA | inactive: -0.0591
GGCTGAAC | inactive: -0.0987
GTACGTGA | inactive: 0.108
AGGAAGTG | inactive: -0.014
ATAAGTTG | inactive: 0.121
CTAAAGCC | inactive: -0.0837
ATCAACAA | inactive: 0.289
ACGATGCC | inactive: -0.137
AACTACCT | inactive: 0.122
ATACGGTG | inactive: 0.0413
CCGGTAAC | inactive: -0.0103
GCGCAACA | inactive: 0.0279
ACGACGTA | ≥ 0.128
GAAAGGTC | inactive: -0.0303
GCATGTTA | active: 0.397

Sequence | PBM E-score
CGTGTTAG | inactive: 0.285
CTTTGCGA | inactive: -0.0806
AAGGCCTA | inactive: -0.13
ACCCTCTG | inactive: -0.179
ACTTGACG | inactive: 0.0476
AATTGTGT | inactive: 0.202
GAGAGGCC | inactive: -0.194
GGTTGATA | inactive: 0.0981
AGGACGAG | inactive: -0.0574
AAAGTGGA | inactive: -0.0524
ACTCATAT | inactive: 0.0842
CATTTACA | inactive: 0.239
CGCGCTTA | inactive: -0.0356
CTAGTTTA | inactive: 0.0982
CTGCATAC | inactive: 0.102
CCGTCCCC | inactive: -0.261
ATCTCTAG | inactive: -0.0553
ATACTTTA | inactive: 0.159
AATGTTCG | inactive: 0.154
CCAGGCCA | inactive: -0.213
TAGACAAA | inactive: 0.144
GCGAATAC | inactive: 0.0418
